Measured values taken from PubChem BioAssay AID1159614 (National Center for Advancing Translational Sciences (NCATS), 2016).
The whole screen tested about 45,000 compounds, of which about 65 (0.1%) were called active. Calls come from the whole dose curve; as a rule, active = well fitted activation curve with a large enough effect; inconclusive = small, poorly fitted or top-dose-only effect; inactive = no such curve, though single readings can be large or run the other way. The list shows a part of the results.

Biological target: Galactocerebrosidase (Homo sapiens) (UniProt P54803)
UniProt P54803, sequence (P54803 whole entry, looked up): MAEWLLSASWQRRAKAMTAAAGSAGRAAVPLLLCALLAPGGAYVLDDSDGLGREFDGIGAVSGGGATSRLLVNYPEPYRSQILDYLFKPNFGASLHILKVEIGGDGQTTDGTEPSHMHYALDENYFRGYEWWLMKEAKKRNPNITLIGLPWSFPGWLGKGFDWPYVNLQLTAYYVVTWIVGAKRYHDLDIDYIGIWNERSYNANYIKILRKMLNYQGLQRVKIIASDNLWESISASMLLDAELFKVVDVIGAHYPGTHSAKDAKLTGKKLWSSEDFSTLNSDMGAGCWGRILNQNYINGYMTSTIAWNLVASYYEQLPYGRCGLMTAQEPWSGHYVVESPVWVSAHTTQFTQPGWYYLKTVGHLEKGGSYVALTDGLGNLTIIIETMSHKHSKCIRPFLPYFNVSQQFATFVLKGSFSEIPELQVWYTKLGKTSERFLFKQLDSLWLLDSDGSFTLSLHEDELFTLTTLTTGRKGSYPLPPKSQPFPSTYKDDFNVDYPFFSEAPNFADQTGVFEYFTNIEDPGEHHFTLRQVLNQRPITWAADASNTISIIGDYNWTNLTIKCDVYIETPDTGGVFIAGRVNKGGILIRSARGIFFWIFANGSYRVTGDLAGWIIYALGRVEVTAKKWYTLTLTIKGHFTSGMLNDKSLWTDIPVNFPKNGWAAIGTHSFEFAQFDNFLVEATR
Test: A Novel Cell-Based Assay to Identify Small Molecules for B -Galactocerebrosidase; note: 0% is about no effect; nearly all actives have a fitted effect of over 65% in size
Conditions: 145M-Twi-hGALC-G270D cells (Twitcher mouse brain line with human GALC G270D), HMU-beta-Gal fluorescence, 48 h; series mostly up to 57.5 µM; activation: at the top concentration
Outline: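 Fluorescence readout: HMU-β-gal cleavage by mutant GALC (0.1 mM final, citrate/phosphate pH 5.2 with 1 mg/mL taurocholate), stopped with carbonate/bicarbonate plus Triton X-100. Cells: murine Twitcher 145M-Twi expressing human G270D GALC; qHTS for activators.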

activation, inactive:
Cc1cc(Br)ccc1NC(=O)COc1cc(=O)n(C)c2ccccc12 1.63%
Cc1nnc(N2CCC(C(=O)NCc3ccc(F)cc3)CC2)c2nn(-c3ccc(Cl)cc3)c(C)c12 -3.28%
CCN(CC)S(=O)(=O)c1ccc2nc(NC(=O)c3ccccc3OC)sc2c1 -33.1%
O=c1c2sc3ccccc3c2n(Cc2ccccc2F)c(=O)n1-c1ccccc1Cl 0.0345%
COc1cccc(CNC(=O)CSc2nc3ccccc3nc2Cc2ccccc2)c1 -8.8%
COc1ccccc1N1CCN(c2ccc(=O)n(CC(=O)O)n2)CC1 -9.45%
CCOCC(=O)Nc1ccc(-c2cn3c(C)csc3n2)cc1 -12.7%
Cc1ccc2c(c1)cc(C(=O)NCc1ccc(F)cc1)n2C -15.5%
COc1cccc(C2CC(=O)Nc3c2c(=O)[nH]c2ncnn32)c1OC (stereo not given) -16.9%
Cc1cccc2cc(CN(C(=O)c3cccc(Cl)c3)c3ccccc3)c(=O)[nH]c12 2.03%
CCN(C(=O)CSc1nc(-c2ccccc2)no1)c1cccc(C)c1 -7.25%
CNC(=O)C1CCC(Cn2c(=O)c3sccc3n(CC(=O)N3CCCC3)c2=O)CC1 (stereo not given) 1.66%
COc1cccc(CNc2ncnc3c2nnn3C)c1 -6.85%
CCOc1ccc(C2C(C(N)=O)=C(C)Nc3nc(-c4ccc(OC)cc4)nn32)cc1 (stereo not given) -12%
O=C(C1CCN(S(=O)(=O)c2ccc(Br)s2)CC1)N1CCN(c2ccc(F)cc2)CC1 0.0052%
COc1ccccc1C(=O)Nc1cccc(OCc2cc(=O)n3c4c(sc3n2)CCCC4)c1 -3.36%
COc1ccccc1Nc1nn2c(=O)c3ccc(C(=O)NC4CCC(C)CC4)cc3nc2s1 (stereo not given) -15%
CCc1nc(N)nc(N)c1-c1ccc(Cl)cc1 -15.5%
COc1ccc(C(=O)Nc2ccccc2)cc1S(=O)(=O)Nc1ccc(Br)cc1 -9.99%
Cc1cc2ccccc2n1CCNC(=O)c1ccccc1F -14.2%
O=c1c2sc3ccccc3c2n(Cc2ccc(F)cc2)c(=O)n1Cc1ccco1 -11.4%
c1ccc2sc(SN3CCOCC3)nc2c1 -9.63%
O=C(NCC(c1ccc2c(c1)OCO2)N1CCN(c2ccccc2)CC1)C(=O)Nc1ccccc1 (stereo not given) -11.3%
CC(C)c1ccc(S(=O)(=O)c2nnn3c2nc(NCc2cccs2)c2sccc23)cc1 -26.9%
CC(=O)Nc1ccc(OC(=O)c2ccccc2OC(C)=O)cc1 -21.7%
Fc1ccc(Nc2nc(-c3cccc(Cl)c3)c3c(n2)-c2ccccc2OC3)cc1 -5.24%
O=C(Nc1ccc2nc(SCC(=O)N3CCCc4ccccc43)sc2c1)c1ccccc1F -4.89%
CCc1ccc(C2=C(C)C(N3CCC(C(=O)Nc4ccc(F)cc4)CC3)=NS2(=O)=O)cc1 -12.7%
O=C(Nc1cccc(C(=O)N2CCN(c3ccccc3)CC2)c1)c1nsc2ccccc12 -7.69%
CC(=O)[C@@]1(O)CC[C@H]2[C@@H]3C[C@H](C)C4=CC(=O)C=C[C@]4(C)[C@@]3(F)[C@@H](O)C[C@@]21C -10.9%
Cc1c(C(=O)Nc2ccccc2)sc2nc(-c3cc4ccccc4oc3=O)[nH]c(=O)c12 -10.6%
CCc1ccc2oc(C(=O)Nc3cc(Cl)ccc3OC)cc(=O)c2c1 -10.7%
CCOc1ccc(NC(=O)c2sc3nc4n(c(=O)c3c2C)CCCC4)cc1 -12.5%
Cc1cc(Cl)ccc1NC(=O)CS(=O)(=O)c1cccc2nsnc12 5.36%
CCOC(=O)C1CCN(c2nc3c(S(=O)(=O)c4ccc(CC)cc4)nnn3c3ccc(Cl)cc23)CC1 0.564%
Cc1cccn2c(=O)c3cc(C(=O)NC(C)(C)C)n(C)c3nc12 0.863%
CC(=O)c1ccc(NC(=O)C2CCCN(S(=O)(=O)c3ccc(Br)s3)C2)cc1 (stereo not given) -15.4%
COC(=O)c1sc2cccc(F)c2c1S(=O)(=O)NC(C)c1ccccc1 (stereo not given) -13.6%
CCc1ccc(NCc2cc3ccc(OC)cc3n(CC(=O)Nc3ccccc3OC)c2=O)cc1 18.1%
CCOc1ccc(N(CC)C(=O)c2cc3c(s2)-c2ccc(Cl)cc2SC3)cc1 -19.5%
Cc1ccn2c(Nc3ccc4c(c3)OCO4)c(-c3ccc(C)o3)nc2c1 -8.97%
Cc1ccc(C(=O)NCCSc2c[nH]c3ccccc23)cc1C -18.5%
Cc1cccc(NC(=O)c2ccc(F)c(S(=O)(=O)NCc3ccc4c(c3)OCO4)c2)c1 0.103%
Cc1cc(C)cc(NC(=O)CSc2oc(-c3cccs3)nc2S(=O)(=O)c2ccc(Br)cc2)c1 -7.03%
CCOC(=O)C1CCN(C(=O)c2ccc3c(=O)n4nc(Nc5ccccc5)sc4nc3c2)CC1 -3.14%
CCCN(CCC)C(=O)Cn1c(=O)n(-c2ccc(CC)cc2)c(=O)c2c3c(sc21)CCC3 -0.558%
COc1ccc(-c2c(C)c3ccc(O)c(CN4CCCCC4C)c3oc2=O)cc1OC (stereo not given) -16.9%
CC(=O)NC(=O)c1ccccc1O -7.9%
COc1ccc(NC(=O)C2(S(=O)(=O)c3ccc(C)cc3)CC2)c(OC)c1 -10.9%
O=C(Nc1ccccc1F)C(c1ccccc1)N1Cc2ccccc2C1=O (stereo not given) -12.6%
CCCOC(=O)c1ccc(NC(=O)C2CC(=O)N(c3ccc(C)cc3)C2)cc1 (stereo not given) -20.2%
O=C(CSc1nccn1Cc1ccc(F)cc1)NC1CCCC1 -13.3%
CCOc1ccc(NC(c2ccc(Cl)cc2)c2nnc(-c3cccc(F)c3)o2)cc1 (stereo not given) -12%
Cc1ccc(CN(C(=O)COc2cccc(Cl)c2)c2ccccn2)o1 7.97%
CCSc1ncc(Cl)c(C(=O)Nc2ccc(S(=O)(=O)N3CCCCC3CC)cc2)n1 (stereo not given) -13.2%
COc1cc(O)ccc1-c1nc2ccc(Br)cn2c1Nc1ccccc1C -24.6%
CCC(=O)N1c2ccccc2CC1C(=O)NCCc1ccccc1OC (stereo not given) -3.66%
Cc1ccc(C)c(-c2ccc(=O)n(C(C)C(=O)Nc3ccccc3C(F)(F)F)n2)c1 (stereo not given) -7.44%
CCCCNC(=O)CSc1nc(-c2ccc(OC)cc2)cc(C(F)(F)F)n1 -15.2%
CN1CC(=O)N2[C@H](c3ccc4c(c3)OCO4)c3[nH]c4ccccc4c3C[C@@H]2C1=O -16.9%
CCc1ccc(-n2nc(C)c3c(C(=O)Nc4ccc(Cl)cc4)cc(C)nc32)cc1 13.5%
CCCOc1ccccc1C(=O)N1CCCCC1CCN1CCCCC1 (stereo not given) -7.94%
COC(=O)c1ccccc1NC(=O)CCn1c(=O)c2cccn2c2cccnc21 1.68%
Cc1noc(-c2ccc(N(C)Cc3ccccc3)c([N+](=O)[O-])c2)n1 -12%
Cc1ccc(OCC(=O)Nc2nnc(SCc3cc(=O)n4cc(C)ccc4n3)s2)cc1 1.87%
COc1ccc(C(=O)Nc2cc(-c3nc4ncccc4o3)ccc2C)cc1Br -9.49%
O=C(NC1CC(=O)N(c2cccc(F)c2)C1)c1ccc(S(=O)(=O)N2CCCCC2)cc1 (stereo not given) -3.37%
COc1ccc(OC)c(-n2nnc(-c3nc(-c4ccc5c(c4)OCO5)no3)c2C)c1 -16.6%
COc1ccc(OCc2nc(-c3ccc(OC)c(OC)c3)no2)cc1 1.21%
CC(=O)Nc1ccc(C)cc1-c1nc2ccccc2n(Cc2cccc(Br)c2)c1=O -12%
COc1cccc(NC(=O)CSc2nnc3[nH]c(=O)cc(-c4ccccc4)n23)c1 -2.97%
CCOC(=O)C1CCCN(C(=O)c2ccc(C)c(NC(=O)c3nsc4ccccc34)c2)C1 (stereo not given) -22.3%
CCCc1nc2nc(C)c(NS(=O)(=O)c3ccc(C)c(C)c3)c(=O)n2[nH]1 -15.8%
C1CCC(C(CC2CCCCN2)C2CCCCC2)CC1 (stereo not given) -39.5%
COc1ccc(CCNc2oc(/C=C/c3ccc(OC)c(OC)c3)nc2C#N)cc1 -2.41%
CCc1ccc(NS(=O)(=O)c2cc(Br)cc3c2N(C(C)=O)CC3)cc1 -4.93%
CC(=O)Nc1ccc(NC(=O)c2ccc3c(c2)CCN3S(=O)(=O)c2ccc(Cl)cc2)cc1 -20.6%
COc1cccc(-n2ccnc2SCC(=O)Nc2nc3ccc(C)cc3s2)c1 3.45%
CC(=O)Nc1c(C)nn(-c2ccccc2)c1N1CCC(C(=O)Nc2ccc(C)cc2Cl)CC1 0.479%
CS(=O)(=O)c1ccc(-c2cn3ccccc3n2)cc1 8.42%
CCCCCCCCCCCCOCCOCCOCCOCCOCCOCCOCCOCCOCCO -13.9%
COc1ccc(N2CCN(C(=O)c3c(C)oc4nc(C)nc(N5CCCC5)c34)CC2)cc1 -11.4%
Cc1ccc(N(C)S(=O)(=O)c2c(-c3ccccc3)csc2C(=O)O)cc1 -10.9%
Cc1cc2nc(-c3cccc(NC(=O)COc4ccc(C(C)C)cc4)c3)oc2cc1C -12.1%
Cc1ccccc1-c1nnc(SCC(=O)N2CCCc3ccccc32)o1 -10.8%
COc1ccc(-c2nc(C)c(CCNC(=O)c3cccs3)s2)cc1 -29.5%
Cc1ccc(-c2nc(C(=O)Nc3cccc(C#N)c3)c3n2CCCCC3)cc1 -32.1%
Cc1cccc(C(=O)OCc2cc(=O)n3nc(C4CC4)sc3n2)c1 21.7%
O=C1c2ccccc2C(=O)C1(c1ccccc1)N1CCN(c2cccc(C(F)(F)F)c2)CC1 -6.12%
CCOc1ccccc1NC(=O)CCc1nc(-c2cccc(C)c2)no1 -27.2%
COc1ccc(-c2nc(SCC(=O)Nc3ccc4c(c3)OCO4)c(-c3ccc(F)cc3)[nH]2)cc1OC -19.3%
CC(C)Oc1ccc(CNS(=O)(=O)c2csc(C(N)=O)c2)cc1 -4.54%
CCCNC(=O)c1c(NC(=O)c2ccccc2F)sc2c1CCCCC2 -18.2%
Cc1nc(-c2ccc(S(=O)(=O)Nc3ccc(OC(F)(F)F)cc3)cc2)co1 -10.8%
Cc1ccc(NC(=O)N2CCC(CN3CCCCCC3)CC2)c(Cl)c1 -7.23%
CC(C)c1ccc(N2C(=O)CSC23C(=O)N(Cc2ccccc2F)c2ccccc23)cc1 (stereo not given) -41.6%
CCC(=O)N1CCc2cc(S(=O)(=O)NCCC(=O)NCc3ccc(OC)cc3)ccc21 -25.2%
COc1cccc(-n2c(=O)c3sccc3n(Cc3cc(=O)n4cc(Cl)ccc4n3)c2=O)c1 0.304%
Cc1nc2nncn2c(Nc2ccc(F)cc2)c1C -5.32%
Cc1ccc(-c2nc(CCNC(=O)C(=O)Nc3ccc(F)cc3F)cs2)cc1 -10.2%
